According to PubChem BioAssay AID493208 (National Center for Advancing Translational Sciences (NCATS), 2011):
Hit rate of the full screen: of about 44,000 compounds, about 340 (0.77%) were called active. Not shown: some 5% with an inconclusive outcome. Calls follow the shape of the dose curve; as a rule, active = well fitted inhibition curve with a large enough effect; inconclusive = small, poorly fitted or top-dose-only effect; inactive = flat fitted curve, though single readings scatter. Some of the results follow.

assay: Acumen qHTS Assay for Inhibitors of the mTORC1 Signaling Pathway in MEF (Tsc2-/-, p53-/-) Cells: Sytravon; conditions: phospho-rpS6 immunofluorescence/PI, 24 h; series mostly up to 38.3 µM; activity change, negative = inhibition: at the top concentration; also: nearly all actives have a fitted effect of over 50% in size
How it was run: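 Read-out: phospho-S6 Alexa-488 intensity over PI intensity per well, scored as % active cells using thresholds from rapamycin (7.5 nM) and DMSO controls. Tsc2-/-, p53-/- MEFs exposed to compound for 24 h; PI cell count recorded as viability.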
Potency is read from the fitted curve at half-maximal effect.

SMILES	activity change, negative = inhibition	Potency
Cc1ccc(NS(=O)(=O)c2c(C)nc3sc(C)c(C)n3c2=O)cc1F	inactive: -10.1%	–
COc1cccc(-c2nc(CS(=O)(=O)CC(=O)Nc3ccc(C)c(Cl)c3)c(C)o2)c1	inactive: 2.16%	–
COc1ccc(CCNC(=O)Cc2ccc(NC(=O)N3CCSc4ncccc43)cc2)cc1OC	inactive: -0.584%	–
Cc1cccc(NC(=O)c2cc3c([nH]c2=O)CC(c2ccccc2)CC3=O)c1 (centres undefined)	inactive: 25.8%	–
O=C(Cn1c(=O)n(Cc2ccc(F)cc2)c(=O)c2sc3ccccc3c21)Nc1ccc(F)cc1F	inactive: -0.121%	–
COc1cc(C(=O)NCc2nc(-c3ccc(Cl)cc3)no2)cc(OC)c1OC	inactive: 3.24%	–
COC(=O)CCNC(=O)N1CCN(c2nnc(C)c3c(C)n(-c4ccccc4)nc23)CC1	inactive: -20.5%	–
COc1cccc(CNC(=O)Cn2cccc2C(=O)c2ccccc2)c1	inactive: -1.9%	–
COc1ccc(C(=O)N2CCN(c3nc4c(OC)cccc4s3)CC2)cc1OC	inactive: -15.7%	–
Cc1cccc(CN2C(=O)c3ccccc3S(=O)(=O)c3ccc(C(=O)OCC4CCCO4)cc32)c1 (centres undefined)	inactive: -5.2%	–
CCc1ccc(CNC(=O)C2COc3ccccc3C2)cc1 (centres undefined)	inactive: 0.0851%	–
Cc1ccc(N2CC(NC(=O)C3CCCCC3)CC2=O)cc1 (centres undefined)	inactive: -6.36%	–
COc1ccc(NC(=O)CSCc2cc(=O)c3cc(Cl)ccc3[nH]2)cc1	inactive: 3.92%	–
CCOC(=O)c1cc(S(=O)(=O)N2CCN(c3ccccc3OC)CC2)[nH]n1	inactive: -8.83%	–
Cc1cccc(C(=O)Nc2cc(-c3ccccc3F)nn2-c2ccccc2)c1	inactive: 0.534%	–
CCOc1ccc(C2CC(=O)Nc3c2c(=O)[nH]c2ncnn32)cc1 (centres undefined)	inactive: -2.88%	–
CCc1ccc(C(=O)c2cn(CC(=O)Nc3ccc(F)cc3)c3ccc(F)cc3c2=O)cc1	inactive: -1.77%	–
CCn1c(CNC(=O)c2ccc(OC)cc2)nnc1SCC(=O)Nc1ccc(F)cc1	inactive: 3.11%	–
COc1cc(NS(=O)(=O)c2cc3[nH]c(=O)[nH]c3cc2C)cc(OC)c1OC	inactive: 2.27%	–
COc1ccc(-c2cc(C(=O)Nc3c(C)nn(Cc4ccccc4C)c3C)no2)cc1	inactive: -16%	–
Cc1ccc2c(c1)-c1c(cnc3cc(-c4ccc(Cl)cc4)nn13)CO2	inactive: 2.29%	–
Cc1ccc(CCNC(=O)c2sc3nc4n(c(=O)c3c2C)CCCC4)cc1	inactive: -2.91%	–
COc1ccccc1CNC(=O)c1ccc2c(c1)nc(C)n2-c1cccc(C)c1	inactive: 0.372%	–
CC(CNC(=O)c1cc2cc(S(=O)(=O)N3CCCCC3)ccc2n1C)c1ccccc1 (centres undefined)	inactive: -2.57%	–
COc1ccc(NC(=O)C(C)N2Cc3ccccc3C2=O)cc1OC (centres undefined)	inactive: -8.94%	–

SMILES	activity change, negative = inhibition	Potency
Cc1ccc2c(c1)c(=O)c1ccccc1n2CCCC(=O)Nc1ccc(C)c(C)c1	inactive: 10.6%	–
Cc1ccc(COC(=O)c2[nH]c3c(c2C)C(=O)CC(c2ccc(Cl)cc2)C3)cc1 (centres undefined)	inactive: 8.11%	–
CC(C)OC(=O)c1ccc(NC(=O)CSc2nc(-c3cccs3)cc(C(F)(F)F)n2)cc1	inactive: -3.24%	–
CC(C)CC(=O)n1nc(-c2ccco2)nc1NCc1ccc(Cl)cc1	inactive: 5.62%	–
CCOc1ccc(NC(=O)c2ccc3nc(C(C)C)oc3c2)cc1	inactive: 0.374%	–
CCc1cccc(NC(=O)Cn2nc(C)c3sc4ccccc4c3c2=O)c1	inactive: -14.6%	–
Cc1ccc(C)c(CN2C(=O)CSc3ccc(C(=O)NCc4ccccc4)cc32)c1	inactive: -8.84%	–
COc1ccc(Cn2c(=O)c3ccccc3n3c(-c4ccc(C)cc4)nnc23)cc1	inactive: 1.87%	–
COc1ccccc1OC(C)C(=O)N1CCC(c2nc3ccccc3s2)CC1 (centres undefined)	inactive: 0%	–
Cc1ccc(OCc2cc(=O)n3cc(C)sc3n2)c(NC(=O)c2ccco2)c1	inactive: 7.7%	–
COc1ccc(NC(=O)c2cnc3sc(N4CCOCC4)nn3c2=O)c(OC)c1	inactive: 0.0235%	–
Cc1ccc(C)c(NC(=O)Cn2cc(S(=O)(=O)NC(C)C)c(S(=O)(=O)NC(C)C)c2)c1	inactive: -0.203%	–
COc1cc(C(=O)Nc2c(C(=O)Nc3ccccc3F)oc3ccccc23)cc(OC)c1OC	inactive: -8.38%	–
CCCn1c(NCc2ccccc2F)nc2ccccc21	inactive: -3.65%	–
O=C(Nc1cccc(NC(=O)c2ccc(Br)cc2)c1)c1ccccc1	inactive: -1.03%	–
CCC(=O)N1c2ccc(S(=O)(=O)CCC(=O)N3CCN(c4ccc(F)cc4)CC3)cc2CC1C (centres undefined)	inactive: -1.23%	–
COc1ccc2c(c1)CC(NC(=O)Nc1ccc(Br)c(C)c1)CO2 (centres undefined)	inactive: -6.98%	–
COc1ccc(-c2nnc(SCC(=O)Oc3cc(C)ccc3C)o2)cc1	inactive: 6.66%	–
O=C(NCc1cccc(F)c1)c1ccc2nc(CCc3ccccc3)oc2c1	inactive: 0.938%	–
CCOC(=O)c1cc2c(=O)n3ccccc3nc2n(CC2CCCO2)c1=NC(=O)c1ccc(F)cc1 (centres undefined)	inactive: 0.488%	–
CCN(C(=O)c1cccn(Cc2cccc(Cl)c2)c1=O)c1ccccc1	inactive: 4.88%	–
CCCCCNC(=O)c1ccc2c(=O)n(CCc3ccccc3)c(=O)[nH]c2c1	inactive: 3.51%	–
CCOC(=O)N1CCc2c(sc(NCc3cccc(F)c3)c2C(=O)Nc2ccc(OCC)cc2)C1	inactive: 0.154%	–
COc1ccc(C(=O)Nc2nonc2-c2ccc(OC)c(OC)c2)cc1Cl	inactive: -29.4%	–
CCc1cc(C(=O)NCc2ccc(F)cc2)no1	inactive: 1.99%	–

SMILES	activity change, negative = inhibition	Potency
CC(=O)c1ccc(S(=O)(=O)N2CCn3cccc3C2c2ccc(F)c(F)c2)cc1 (centres undefined)	inactive: -2.39%	–
COc1ccc(CNc2ncnc3c2c(-c2ccccc2)cn3-c2cccc(C)c2)cc1	inactive: 11.5%	–
CC(C)Oc1ccc(CNC(=O)c2ccc3c(c2)N(C)C(=O)C2CCCCN32)cc1 (centres undefined)	inactive: 1.18%	–
Cc1ccc(N2CC(NC(=O)C3CCCC3)CC2=O)cc1C (centres undefined)	inactive: -0.158%	–
COc1cccc(NC(=O)C2CCN(S(=O)(=O)c3c(C)noc3/C=C/c3cccs3)CC2)c1	inactive: -8.87%	–
O=C(COc1ccccc1Cl)Nc1nc(-c2ccc(F)cc2)ns1	inactive: -0.919%	–
CCN1CCN(c2cc(C)c3cc(NC(=O)/C=C/c4ccc(OCCC(C)C)cc4)ccc3n2)CC1	–	active: 4140 nM
CCc1nnc(SCc2nc(-c3cccc(C)c3)oc2C)c2cc3sc(C)cc3n12	inactive: -0.834%	–
COc1ccc(C(=O)Nc2cc(NC(=O)c3ccco3)ccc2OC)cc1Cl	inactive: 1.16%	–
Cc1ccc(NC(=O)CSc2nc(C3CCCC3)nc3c2c(=O)n(C)c(=O)n3C)c(C)c1	inactive: -1.41%	–
CCOC(=O)c1c(-c2ccccc2)oc2cc(Br)c(OCc3ccccc3)cc12	inactive: 4.41%	–
Cc1ccc(OCCCCn2nnc3sc4c(c3c2=O)CCC(C)C4)cc1 (centres undefined)	inactive: 0.525%	–
CCn1c(=N)c(C(=O)NC2CCCC2)cc2c(=O)n3cc(C)ccc3nc21	inactive: 0.137%	–
CCOc1ccc(C(=O)NCCc2csc(-c3cccnc3)n2)cc1	inactive: -10.9%	–
Cc1ccc(NC(=O)C2CCCN(S(=O)(=O)c3cccc4nsnc34)C2)c(C)c1 (centres undefined)	inactive: 2.81%	–
O=C(Cn1c(=O)n(-c2ccc(F)c(Cl)c2)c(=O)c2sc3ccccc3c21)NC1CCCCC1	inactive: -0.281%	–
Cc1ccc(Cl)cc1Nc1nn2c(=O)c3ccc(C(=O)NC4CCC(C)CC4)cc3nc2s1 (centres undefined)	inactive: 1.55%	–
CCNC(=O)C1CCCN(c2nn3cc(-c4ccc(C)cc4)nc3s2)C1 (centres undefined)	inactive: 4.19%	–
CC(C)c1ccc(CNCCSc2nnnn2-c2ccccc2)cc1	inactive: -6.5%	–
CCC(C)S(=O)(=O)c1oc(-c2ccc(F)cc2)nc1S(=O)(=O)c1ccc(F)cc1 (centres undefined)	–	active: 826 nM
CCOc1ccc(-n2nc3ccc(NC(=O)COc4ccccc4)cc3n2)cc1	inactive: 3.05%	–
Cc1cc(C)cc(NC(=O)C2CCN(c3nc4ccccc4nc3C(F)(F)F)CC2)c1	inactive: 2.54%	–
Cc1cccc(N2CCN(C(=O)Cc3c(C(=O)O)c(C)cn3C)CC2C)c1 (centres undefined)	inactive: -3.12%	–
CN(Cc1ccccc1)C(=O)c1ccc(CSc2nc3cccnc3n2Cc2ccccc2)cc1	inactive: -7.72%	–
COc1ccccc1CCNC(=O)C1(c2cccs2)CCOCC1	inactive: -4.71%	–

SMILES	activity change, negative = inhibition	Potency
CCc1cccc(NC(=O)CCn2nc(C)cc2C)c1	inactive: -5.55%	–
COC(=O)c1c(NC(=O)COc2ccc(C(C)C)cc2)sc2c1CCCC2	inactive: -1.42%	–
COc1ccc(C2CC(=O)Nc3c2c(C)nn3-c2nc(C)cc(C)n2)c(OC)c1OC (centres undefined)	inactive: -8.62%	–
CCC(=O)NCCc1sc2nc(-c3ccc(OC)cc3)nn2c1C	inactive: -0.0671%	–
COc1ccc(CCNC(=O)c2ccc3nc(CCc4ccccc4)oc3c2)cc1OC	inactive: 4.17%	–
COc1ccc(NC(=O)Cn2c(=O)oc3cc(S(=O)(=O)N4CCCC4)ccc32)cc1OC	inactive: 0.985%	–
CCCS(=O)(=O)Nc1cccc(-c2cn3ccsc3n2)c1	inactive: 0%	–
Cc1cccc(CSc2nc3ccncc3n2CC(=O)N(C)C2CCCCC2)c1	inactive: -3.92%	–
COc1ccc(NC(=O)Cn2cnc3c(nc4n3CCCCC4)c2=O)cc1Cl	inactive: 1.91%	–
Cc1ccc(N2C(=O)CSC23C(=O)N(CC(=O)NCCc2ccccc2)c2ccccc23)cc1 (centres undefined)	inactive: -7.4%	–
CCC1CN(C(=O)N2CCC(C(=O)NCc3cccs3)CC2)c2ccccc2O1 (centres undefined)	inactive: 11.4%	–
CC(=O)c1ccc(NC(=O)c2sc(-n3nc(C)c(Cc4ccc5c(c4)OCO5)c3C)nc2C)cc1	inactive: -5.02%	–
COc1cccc(CNCc2c(C(=O)O)n(Cc3ccc(C)cc3)c3cc(C)ccc23)c1OC	inactive: -0.504%	–
O=c1oc2c(CN3CCOCC3)c(O)ccc2cc1-c1ccccc1	inactive: 0.542%	–
COc1ccc(N2CCN(C(=O)c3noc4c3CCCCC4)CC2)cc1	inactive: 0.786%	–
CCOC(=O)c1ccccc1NC(=O)c1sc2nc(-c3ccc(F)cc3)cn2c1C	inactive: 2.41%	–
O=C(NCCc1nc2ccccc2n1Cc1ccc(Cl)cc1)c1ccccc1	inactive: -10.9%	–
COc1ccc(-c2nc3ccccc3o2)cc1NC(=O)c1cc(Br)ccc1OC	inactive: -1.81%	–
COc1ccc(C)cc1NC(=O)NCCn1nnc2cc(S(=O)(=O)N(C)C)ccc21	inactive: 10.3%	–
Cc1nnc(NC(=O)CSc2nc3c([nH]c4ccccc43)c(=O)n2-c2cccc(Cl)c2)s1	inactive: 0.054%	–
COc1ccc(CCNC(=O)c2cnc3sc(N4CCCCCC4)nn3c2=O)cc1	inactive: -4.99%	–
Cc1ccc(C(=O)OCc2cc(=O)n3nc(CC(C)C)sc3n2)cc1	inactive: 0%	–
Cc1ccc2occ(CC(=O)Nc3c(C)cccc3C)c2c1	inactive: -1.29%	–
CCCN(C(=O)c1ccc2c(=O)n3c(nc2c1)CCCCC3)c1cccc(Cl)c1	inactive: 0.475%	–
